Test results: the supplement of paper PMC12217912
Some of the results follow. Sequences were assembled here from the parent chain. Inactive controls read about 0.05.

B1: TEV protease; numbered along this chain (parent)
chain: MGESLFKGPRDYNPISSSICHLTNESDGHTTSLYGIGFGPFIITNKHLFRRNNGTLVVQSLHGVFKVKDTTTLQQHLVDGRDMIIIRMPKDFPPFPQKLKFREPQREERICLVTTNFQTKSMSSMVSDTSCTFPSGDGIFWKHWIQTKDGQCGSPLVSTRDGFIVGIHSASNFTNTNNYFTSVPKNFMELLTNQEAQQWVSGWRLNADSVLWGGHKVFMVKPEEPFQPVKEATQL

Variants of: B1
Test: raw area under fraction-flipped curve 0-4 h after induction (AUC4h, not background-subtracted), DNA-recorder readout of cleavage of the substrate (dimensionless); higher = more cleavage of the substrate by the protease variant
Settings: temperature: 34 °C; time window: 0-4 h after rhamnose induction
Protocol: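 In vivo DNA recorder in E. coli TOP10(DE3) ΔrhaA at 34 °C. Each TEVp single-site mutant (parent TEVp 0) is paired with a single-site variant of the 7-mer TEVs (canonical ENLYFQ|S). The substrate sits between flexible linkers in a Bxb1-sfGFP-TEVs-SsrA fusion, so cleavage stabilises Bxb1 and speeds flipping of a recombination array, read by NGS. The value is the raw area under the fraction-flipped curve over 0-4 h after rhamnose induction (AUC4h), with ≥20 reads per time point. It is not background-subtracted; inactive controls average about 0.047.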
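Note: Bxb1 expression induced with 0.2% (w/v) L-rhamnose at OD600 near 0.5, cultures sampled hourly, flipped fraction per protease–substrate barcode pair counted by paired-end Illumina sequencing.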

| Variant | area with substrate ECLYFQS | area with substrate EDLYFQS | area with substrate EELYFQS | area with substrate EHLYFQS | area with substrate EMLYFQS | area with substrate EPLYFQS | area with substrate EQLYFQS | area with substrate ESLYFQS | area with substrate EVLYFQS | area with substrate EWLYFQS | area with substrate EFLYFQS | area with substrate EGLYFQS | area with substrate EILYFQS | area with substrate EKLYFQS | area with substrate ELLYFQS | area with substrate ERLYFQS | area with substrate ETLYFQS | area with substrate EYLYFQS |
| --- | --- | --- | --- | --- | --- | --- | --- | --- | --- | --- | --- | --- | --- | --- | --- | --- | --- | --- |
| MGESLFKGPRDYNPISSSICHLTNESDGHTTSLYGIGFGPFIITNKHLFRRNNGTLVVQSLHGVFKVKDTTTLQQHLVDGRDMIIIRMPKDFPPFPQKLKFREPQREERICLVTTNFQTKSMSSMVSDTSCTFPSGDGIFWKHWIQTKDGQCGLPLVSTRDGFIVGIHSASNFTNTNNYFTSVPKNFMELLTNQEAQQWVSGWRLNADSVLWGGHKVFMVKPEEPFQPVKEATQL [S154L] | 0.121 | 0.186 | 0.199 | 0.173 | 0.159 | 0.118 | 0.152 | 0.17 | 0.122 | 0.119 |  |  |  |  |  |  |  |  |
| MGESLFKGPRDYNPISSSICHLTNESDGHTTSLYGIGFGPFIITNKHLFRRNNGTLVVQSLHGVFKVKDTTTLQQHLVDGRDMIIIRMPKDFPPFPQKLKFREPQREERICLVTTNFQTKSMSSMVSDTSCTFPSGDGIFWKHWIQTKDGQCGCPLVSTRDGFIVGIHSASNFTNTNNYFTSVPKNFMELLTNQEAQQWVSGWRLNADSVLWGGHKVFMVKPEEPFQPVKEATQL [S154C] | 0.11 | 0.134 | 0.0833 |  | 0.139 | 0.112 | 0.111 | 0.139 | 0.0982 | 0.118 | 0.102 | 0.11 | 0.0845 | 0.101 | 0.082 | 0.0885 | 0.124 | 0.083 |
| MGESLFKGPRDYNPISSSICHLTNESDGHTTSLYGIGFGPFIITNKHLFRRNNGTLVVQSLHGVFKVKDTTTLQQHLVDGRDMIIIRMPKDFPPFPQKLKFREPQREERICLVTTNFQTKSMSSMVSDTSCTFPSGDGIFWKHWIQTKDGQCGRPLVSTRDGFIVGIHSASNFTNTNNYFTSVPKNFMELLTNQEAQQWVSGWRLNADSVLWGGHKVFMVKPEEPFQPVKEATQL [S154R] | 0.0707 | 0.0964 | 0.0938 | 0.0845 |  | 0.0952 | 0.0954 | 0.0881 | 0.0748 |  | 0.0809 | 0.0705 | 0.0732 | 0.0865 | 0.0804 |  |  | 0.0844 |
| MGESLFKGPRDYNPISSSICHLTNESDGHTTSLYGIGFGPFIITNKHLFRRNNGTLVVQSLHGVFKVKDTTTLQQHLVDGRDMIIIRMPKDFPPFPQKLKFREPQREERICLVTTNFQTKSMSSMVSDTSCTFPSGDGIFWKHWIQTKDGQCGSPCVSTRDGFIVGIHSASNFTNTNNYFTSVPKNFMELLTNQEAQQWVSGWRLNADSVLWGGHKVFMVKPEEPFQPVKEATQL [L156C] | 0.0933 | 0.142 |  | 0.102 | 0.124 | 0.1 | 0.115 | 0.113 | 0.119 |  |  | 0.102 | 0.0911 | 0.0991 | 0.121 | 0.112 | 0.0983 |  |
| MGESLFKGPRDYNPISSSICHLTNESDGHTTSLYGIGFGPFIITNKHLFRRNNGTLVVQSLHGVFKVKDTTTLQQHLVDGRDMIIIRMPKDFPPFPQKLKFREPQREERICLVTTNFQTKSMSSMVSDTSCTFPSGDGIFWKHWQQTKDGQCGSPLVSTRDGFIVGIHSASNFTNTNNYFTSVPKNFMELLTNQEAQQWVSGWRLNADSVLWGGHKVFMVKPEEPFQPVKEATQL [I145Q] | 0.0705 |  |  |  | 0.0761 | 0.0951 |  |  |  |  | 0.0703 | 0.0714 | 0.0673 | 0.072 | 0.0695 | 0.096 |  | 0.068 |
| MGESLFKGPRDYNPISSSICHLTNESDGHTTSLYGIGFGPFIITNKHLFRRNNGTLVVQSLHGVFKVKDTTTLQQHLVDGRDMIIIRMPKDFPPFPQKLKFREPQREERICLVTTNFQTKSMSSMVSDTSCTFPSGDGIFWKHWIITKDGQCGSPLVSTRDGFIVGIHSASNFTNTNNYFTSVPKNFMELLTNQEAQQWVSGWRLNADSVLWGGHKVFMVKPEEPFQPVKEATQL [Q146I] | 0.104 | 0.16 | 0.141 | 0.111 |  | 0.122 | 0.143 | 0.126 | 0.11 |  |  | 0.1 | 0.0926 | 0.113 |  |  |  |  |
| MGESLFKGPRDYNPISSSICHLTNESDGHTTSLYGIGFGPFIITNKHLFRRNNGTLVVQSLHGVFKVKDTTTLQQHLVDGRDMIIIRMPKDFPPFPQKLKFREPQREERICLVTTNFQTKSMSSMVSDTSCTFPSGDGIFWKHWIQTKDGQCPSPLVSTRDGFIVGIHSASNFTNTNNYFTSVPKNFMELLTNQEAQQWVSGWRLNADSVLWGGHKVFMVKPEEPFQPVKEATQL [G153P] | 0.0454 |  |  |  | 0.0456 |  | 0.0392 |  | 0.0423 |  | 0.0392 |  | 0.0358 |  |  | 0.051 |  |  |
| MGESLFKGPRDYNPISSSICHLTNESDGHTTSLYGIGFGPFIITNKHLFRRNNGTLVVQSLHGVFKVKDTTTLQQHLVDGRDMIIIRMPKDFPPFPQKLKFREPQREERICLVTTNFQTKSMSSMVSDTSCTFPSGDGIFWKHWIQTKDGGCGSPLVSTRDGFIVGIHSASNFTNTNNYFTSVPKNFMELLTNQEAQQWVSGWRLNADSVLWGGHKVFMVKPEEPFQPVKEATQL [Q151G] | 0.149 | 0.16 | 0.112 |  | 0.0659 | 0.132 | 0.0694 | 0.0967 | 0.0872 | 0.107 | 0.107 | 0.071 | 0.0892 |  |  | 0.0897 |  |  |
| MGESLFKGPRDYNPISSSICHLTNESDGHTTSLYGIGFGPFIITNKHLFRRNNGTLVVQSLHGVFKVKDTTTLQQHLVDGRDMIIIRMPKDFPPFPQKLKFREPQREERICLVTTNFQTKSMSSMVSDTSCTFPSGDGIFWKHWIQTKDPQCGSPLVSTRDGFIVGIHSASNFTNTNNYFTSVPKNFMELLTNQEAQQWVSGWRLNADSVLWGGHKVFMVKPEEPFQPVKEATQL [G150P] | 0.0576 |  | 0.0567 | 0.0606 | 0.0557 | 0.0504 | 0.0661 | 0.059 | 0.0536 | 0.0542 | 0.0531 | 0.0606 | 0.0433 | 0.0562 | 0.0596 | 0.0693 | 0.0882 | 0.07 |
